In PubChem BioAssay AID1963576 (National Center for Advancing Translational Sciences (NCATS), 2024):
In all, about 46,000 compounds went through this assay and about 60 (0.1%) were called active. Another 3% or so got no clear call; they are omitted. The call rests on the fitted dose curve; in most records, active means well fitted inhibition curve with a large enough effect; inconclusive means small, poorly fitted or top-dose-only effect; inactive means no such curve, though single readings can be large or run the other way. The list shows a part of the results.

Assay: Primary qHTS assay for Inhibitors of ovarian cancer metastasis using an organotypic tumor microenvironment (TME) model. Further: nearly all actives have a fitted effect of over 65% in size.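 On activity change, negative = inhibition: plate controls were DMSO wells for no effect and tomatine positive control wells for full effect.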
Details: SKOV3ip1-GFP adhesion/invasion on 3D omental model, fluorescence; series mostly up to 45.8 µM; activity change, negative = inhibition: at the top concentration
Outline: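 Adhesion/invasion was scored as fixed GFP-labeled SKOV3ip1 cell counts (488/509 nm), normalized to DMSO and tomatine controls. Cancer cells in serum-free medium, with four compound doses (0.36-46 umol/L), sat 2 hr at RT then 16 hr at 37 C on a 48 hr fibroblast/mesothelial/ECM culture.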

Activity change, negative = inhibition, inactive:
CCCCOC(=O)c1ccc(NC(=O)/C(C#N)=C/c2ccc(-c3ccccc3)o2)cc1 3.37%
CN(C)c1ccc(CNC(=O)C(Cc2ccccc2)NS(=O)(=O)c2ccc3c(c2)oc(=O)n3C)cc1 (stereo not drawn) 4.28%
Cc1ccc(-c2cc(C(=O)N3CCN(S(=O)(=O)c4ccc(Br)s4)CC3)[nH]n2)c(C)c1 -7.84%
CC(=O)c1ccc(NC(=O)CSc2ccc3nc(-c4ccccc4)cn3n2)cc1 4.71%
COc1cc(-c2nnc(SCC(=O)NC(C)C)o2)cc(OC)c1OC 4.13%
CC(C)(C)OC(=O)N1CCC(c2c(C(=O)N3CCN(c4ncccn4)CC3)cnn2-c2ccc(F)cc2F)CC1 -1.85%
COc1ccc(-c2cn3nc(N4CCC(C(=O)Nc5cc(Cl)ccc5OC)CC4)sc3n2)cc1 8.93%
Cc1ccc(C)c(NC(=O)Cn2c(=O)n(Cc3cccs3)c(=O)c3cccnc32)c1 6.94%
CCc1nnc(SCc2nc(-c3ccccc3)oc2C)c2cc3sccc3n12 -2.82%
CCc1ccc(CNC(=O)Cc2c(C(=O)O)c(C)cn2C)cc1 -0.0817%
CC1C(=O)OC2C(O)C34C5CC(C(C)(C)C)C36C(OC(=O)C6O)OC4(C(=O)O5)C12O (stereo not drawn) 1.76%
Cc1ccccc1C(=O)Nc1ccc2nc(SCCOc3ccccc3)sc2c1 -23.3%
Cc1ccc(Cl)cc1NC(=O)/C(C#N)=C\c1cn(Cc2ccc(F)cc2)c2ccccc12 -6.29%
COc1ccc(C(=O)Nc2ccc(C(=O)OCc3cc(=O)n4nc(C(C)C)sc4n3)cc2)cc1 0.721%
COc1ccc(-c2nc(SCC(=O)N3CCC(C)CC3)n[nH]2)cc1 36.5%
Nc1c(C(=O)Nc2ccc(Cl)cc2F)sc2nc(-c3cccs3)ccc12 -8.34%
COc1ccc(OC)c(NC(=O)C(CCSC)NS(=O)(=O)c2cccs2)c1 (stereo not drawn) 9.24%
CC(=O)N1CCCc2cc(S(=O)(=O)NCc3ccc(OC(C)C)cc3)ccc21 -10.6%
COc1ccc(-c2nn(-c3ccc(F)cc3F)c3c2cnc2ccc(F)cc23)cc1 11.5%
CC(NC(=O)c1cc2sccc2n1Cc1ccc(F)cc1)c1ccccc1 (stereo not drawn) 6.77%
COc1ccc(C(=O)Nc2ccc(-c3cc(C(F)(F)F)nn3-c3ccccc3)cc2)cc1OC -24.9%
CCOc1ccc(-c2nonc2NC(=O)c2oc3cc(Br)ccc3c2C)cc1 -22.4%
CCN1CCN(C(=O)c2ccc3c(c2)N(Cc2cc(C)ccc2C)C(=O)c2ccccc2S3(=O)=O)CC1 -10.4%
CCOc1ccc(C(=O)Nc2ccc3nc(SCC(=O)N4CCOCC4)sc3c2)cc1 -12.7%
Cc1ccc(OCC(=O)Nc2ccc(-c3nc4ccc(C)cc4o3)cc2)cc1 -7.63%
Cc1cccc(C(=O)Nc2cccc(C(=O)OCc3cc(=O)n4nc(C5CC5)sc4n3)c2)c1 -2.05%
N#Cc1ccccc1NC(=O)C(=O)NCC(c1cccnc1)N1CCN(c2ccccc2)CC1 (stereo not drawn) 0.71%
COc1ccc(CCC(=O)NCc2ccc3c(c2)CCN3C(=O)c2cccc(C)c2)cc1 7.09%
O=C(Nc1ccc(F)cc1F)C1CCCN1S(=O)(=O)c1cccc2nsnc12 (stereo not drawn) 6.41%
Cc1cc(NC(=O)CN(c2cccc(C)c2C)S(=O)(=O)c2ccccc2)ccc1Br 12%
O=C(NCCc1ccccc1)c1cnc2sc(N3CCOCC3)nn2c1=O -7.93%
CCOC(=O)c1c(C)oc2nc(C)nc(NCCc3ccc(S(N)(=O)=O)cc3)c12 -11.6%
Cc1cccc(-c2nnc(SCCC(=O)O)o2)c1 -23.4%
COc1cc(CNCCSc2nnnn2C)ccc1OCc1c(F)cccc1Cl -13.8%
CCOC(=O)c1[nH]c(C)c(C(=O)NCc2ccc(F)cc2)c1C 2.35%
O=C(O)c1cccnc1Nc1cccc(C(F)(F)F)c1 16.8%
O=[N+]([O-])c1ccc(C(c2sc3nc(-c4ccco4)nn3c2O)N2CCC3(CC2)OCCO3)cc1 (stereo not drawn) -1.44%
CCc1ccc(CNC(=O)C2CCN(c3nnc(-n4c(C)ccc4C)s3)CC2)cc1 -13.7%
COc1ccc(N2CCN(c3oc(/C=C/c4cccc(OC)c4)nc3C#N)CC2)cc1 21%
CCOc1ccc(CCNC(=O)c2cnc3c(-c4ccccc4)c(C)nn3c2C)cc1OCC -4.14%
Cc1cccc(NC(=O)CN2C(=O)CCc3ccccc32)c1C 6.11%
CCCCN(CCCC)c1nc(-c2ccccc2)nc2ccccc12 -16.8%
Cc1oncc1C(=O)Nc1ccc(C(F)(F)F)cc1 -1.28%
Nc1ccn(C2CO[C@H](CO)O2)c(=O)n1 (stereo partly drawn) 12.5%
CC1(c2ccccc2)CC(C)(C)N(C(=O)c2ccccc2Cl)c2ccccc21 (stereo not drawn) 0.596%
COc1ccccc1C(=O)Nc1c(C(=O)Nc2ccc(C)cc2)oc2ccccc12 8.04%

outcome, inactive:
COc1ccc(NC(=O)c2cc3c(=O)n(Cc4ccco4)ccc3nc2C)c(OC)c1
O=C(NCc1ccc(F)cc1)c1cc2c(s1)-c1ccccc1SC2
O=C(CCCn1c(=O)c2ccccc2n(CC(=O)Nc2ccc(F)cc2F)c1=O)NCc1ccccc1Cl
COc1cccc(CCNc2ncnc3c2nnn3C)c1
Cc1ccc(N(CC(=O)Nc2ccc(Br)c(C)c2)S(=O)(=O)c2cccs2)cc1
CCOc1ccc(CCNC(=O)C2Cc3ccccc3N2C(=O)CC)cc1OCC (stereo not drawn)
Fc1ccc(CNc2cc(-c3ccccc3)nc3nncn23)cc1
CCOC(=O)c1c(S(=O)(=O)NCC(=O)NCc2ccc(C)cc2)c(C)n(C)c1C
CCc1cccc(C)c1NS(=O)(=O)c1ccc(-n2cccn2)cc1
CCCOc1ccc(CNC(=O)C2CCN(c3nn4c(=O)cc(C)nc4s3)CC2)cc1
CCCSCCCNC(=O)CN1C(=O)COc2ccc(S(=O)(=O)N3CCCCCC3)cc21
CCOc1ccccc1Nc1ccc2cc(S(=O)(=O)N3CCCCC3)ccc2n1
COc1ccccc1CNC(=O)C(C)n1c(=O)cc(C(F)(F)F)c2c(C)nn(C)c21 (stereo not drawn)
CC(C)c1ccc(OCC(=O)Nc2cc(-c3nc4ncccc4o3)ccc2Cl)cc1
CCCCC(=O)Nc1ccc(OCc2cc(=O)n3ccc(C)cc3n2)cc1
COc1cc(C2CC(=O)Nc3cc4c(cc32)OCCO4)cc(OC)c1O (stereo not drawn)
COc1ccc(NC(=O)C2CCCN2S(=O)(=O)c2ccc3c(c2)CCCC(=O)N3)cc1Cl (stereo not drawn)
